Assay results published in the supplement of paper PMC7125110.
± gives the standard error. Variants at the floor of the assay are shown more often than the library holds them.

B1: glmS ribozyme (parent)
chain: AUAAAAGCGCCAGAACUACAGAAAUGUAGUUGACGAGGAGGAGGUUUAUCGAAUUUUCGGCGGAUGCCUCCAAA

Key:
Details in all cases: with glucosamine-6-phosphate
[1] = variants of: B1; test: self-cleavage kobs at 640 uM GlcN6P; higher = faster cleavage; RNA array
Outline: (§1)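 Tiles bearing barcoded ribozyme variants, transcribed in situ by E. coli RNA polymerase on sequenced MiSeq chips, were imaged over ~14 h at 37 °C using a hybridised Cy3 probe. Glucosamine-6-phosphate was supplied at 40 μM to 10 mM in HEPES/KCl/Mg(OAc)2 buffer. kobs came from one- or two-exponential decay fits to normalised per-tile medians, and weighted Michaelis–Menten fits then provided kcat and KM.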

[2] = variants of: B1; test: self-cleavage kobs at 2500 uM GlcN6P; higher = faster cleavage; RNA array
Outline: as §1

[3] = variants of: B1; test: self-cleavage kobs at 160 uM GlcN6P; higher = faster cleavage; RNA array
Outline: as §1

[4] = variants of: B1; test: self-cleavage kobs at 10000 uM GlcN6P; higher = faster cleavage; RNA array
Outline: as §1

Variant	self-cleavage kobs at 640 uM GlcN6P [1] [s⁻¹]	self-cleavage kobs at 2500 uM GlcN6P [2] [s⁻¹]	self-cleavage kobs at 160 uM GlcN6P [3] [s⁻¹]	self-cleavage kobs at 10000 uM GlcN6P [4] [s⁻¹]
AUAAAAGCGCAAGAACUACAGAAAUGUAGUUGACGAGGAGGAGGUUUAUCGAGUUUUCGGCGAAUGCCUCCAAA [C11A A53G G63A]	< 1e-05			
AUAAAAGCGCAAGAAGUACAGAAAUGUAGUUGACGAGGGGUAGGUUUAUCGAAUUAUCGGCGGAUGCCUCCAAA [C11A C16G A39G G41U U56A]	< 1e-05	< 1e-05		
AUAAAAGCGCAAGAAUUACAGAAAUGUAGGUGACGGGGCGGAGGUUGAUCGAAUUUUCGGCGGAUGCCUCCAAA [C11A C16U U30G A36G A39C U47G]	< 1e-05	< 1e-05		
AUAAAAGCGCAACAACUACAGAAAUGUAGUUGACUAGGAGGAGGUUUAUCGAAUUUUCGGCGGAUGCCUCCAAA [C11A G13C G35U]	< 1e-05	< 1e-05		
AUAAAAGCGCAAGAACUACAGAAAUGUAUUUGACGAGGAGGCGGUUUAUCGAAUUUUCGGCGGAUGCCUCCAAA [C11A G29U A42C]	< 1e-05	< 1e-05	< 1e-05	
AUAAAAGCGCAAGAACUACAGAAAUGUAGUUAACGAGGAGGAGGUUUAUCGAAUUUUCGGCGGAUGCCUCCAAA [C11A G32A]	< 1e-05		< 1e-05	
AUAAAAGCGCAAGAACUACAGAAAUGUAGUUGACGAGGAGGAGGUUUAUCGAAUUUUCGGCUGAUGCCUCCAAA [C11A G62U]	< 1e-05		< 1e-05	
AUAAAAGCGCAAGAACUACAGAAAUGUAGGUGACGAGGAGGAGGUUUAUCGAAUUUUCGGCGGAUGCCUCCAAA [C11A U30G]	6.39e-05 ± 1.1e-05	0.000172 ± 5.6e-05		0.000422 ± 9.6e-05
AUAAAAGCGCAAGAACUACAGAAAUGUAGUGGACGAGGAGGAGGUUUAUCGAAUUUUCGGCGGAUGCCUCCAAA [C11A U31G]	4.58e-05 ± 1.1e-05	0.000179 ± 3.7e-05		0.000253 ± 5.7e-05
AUAAAAGCGCGGGAACUACAGAAAUGUAGUGGACGAGGAGGAGUUUUAUGGAAUUUUCGGCGGAUACCUCCAAA [C11G A12G U31G G44U C50G G66A]	< 1e-05			
AUAAAAGCGCGAGAACUACAGAAAUGUAGUUGACUAGGAGGAGGUUUAUCGAAUUUUCGGGGGAUGCCUCCAAA [C11G G35U C61G]	< 1e-05			
AUAAAAGCGCGAGAACUACAGAAAUGUAGUUGACGAGCAGGCGGUUUAUCGAAUUCUGGGCGGAUGCCUCCAAA [C11G G38C A42C U56C C58G]	< 1e-05	< 1e-05		
AUAAAAGCGCGAGAACUACAGAAAUGUAGCUGACGAGGAGGAGGUUUAUCGAAUUUUCGGCAGAUGCCUCGAAA [C11G U30C G62A C71G]	< 1e-05			
AUAAAAGCGCGAGAACUACAGAAAUGUAGUAGACGAGGAGGAUGUUUAACGAAUUUUCGGCGGAUGCCUCCAAA [C11G U31A G43U U49A]	< 1e-05		< 1e-05	< 1e-05
AUAAAAGCGCGAGAACUACAGAAAUGUAGUUGACGAGGAGGAGGGUUAUCGAAUUUUCGGCGGAUGCCUCUAAA [C11G U45G C71U]	< 1e-05	< 1e-05		
AUAAAAGCGCGAGAACUACAGAAAUGUAGUUGACGAGGAGGAGGUUUAUCGAAUUUCCGGCGGAUGCCUCCAAA [C11G U57C]	< 1e-05		< 1e-05	< 1e-05
AUAAAAGCGCUCGAACUACAGAAAUGUAGUGUACGAGGAGGAGGUUUAUCGAAUUUGCGGCGGAUGCCUCCAAA [C11U A12C U31G G32U U57G]	< 1e-05			
AUAAAAGCGCUAGAGCUACAGAAAUGUAGUUGACAAGGAGGAGGUUUAUCGAAUUUUCGGAGGAUGCCUCUAAA [C11U A15G G35A C61A C71U]	< 1e-05	< 1e-05		
AUAAAAGCGCUAGAUCUACAGAAAUGUAGUUGACGAGGAGGAGGUUUAUCGAAUUUUCGGCGGAUGCCUGCAAA [C11U A15U C70G]	0.000134 ± 4.8e-05			

Variant	self-cleavage kobs at 640 uM GlcN6P [1] [s⁻¹]	self-cleavage kobs at 2500 uM GlcN6P [2] [s⁻¹]	self-cleavage kobs at 160 uM GlcN6P [3] [s⁻¹]	self-cleavage kobs at 10000 uM GlcN6P [4] [s⁻¹]
AUAAAAGCGCUAGAACUACAGAAAUGUAGUUGUCCAGGAGGAGGUUUAUCGAAUUUUCGGCGGAUGCCUCCAAA [C11U A33U G35C]	< 1e-05	< 1e-05	< 1e-05	
AUAAAAGCGCUAGAACUACAGAAAUGUAAUUGACGAGGAGGAGGUUUAUCGAAUUUUCGGCGGAUGCCUCCAAA [C11U G29A]	9.17e-05 ± 1.1e-05	0.000194 ± 3e-05		0.000474 ± 5.6e-05
AUAAAAGCGCUAGAACUACAGAAAUGUAUUUGACGACGAGGAGGUUUAUCGAAUUUUCGGCGGAUGCCUACAAA [C11U G29U G37C C70A]	0.000166 ± 5.6e-05			
AUAAAAGCGCUAGAACUACAGAAAUGUAGUUAACGAGGAGGAGGUUUAUCGAAUUUUCGGCGGAUGCCUCCAAA [C11U G32A]	0.00014 ± 3.1e-05	0.000239 ± 5.9e-05	5.04e-05 ± 2.1e-05	0.000404 ± 4.4e-05
AUAAAAGCGCUAGAACUACAGAAAUGUAGUUCACGAGGAGGAGGUUUAUGGUAUUUUCGGCGGAUGCCUCCAAA [C11U G32C C50G A52U]	< 1e-05			
AUAAAAGCGCUAGAACUACAGAAAUGUAGUUGACAAGGAGGAGGGUUAUCGAAUGUUCGGCGGAUGCCUCCAAA [C11U G35A U45G U55G]	< 1e-05			
AUAAAAGCGCUAGAACUACAGAAAUGUAGUUGACGAGCAGGAGGUUUAUCUAAUUUUCGGCGGAAGCCUCCAAA [C11U G38C G51U U65A]	< 1e-05			
AUAAAAGCGCUAGAACUACAGAAAUGUAGUUGACGAGGAUGGGGUUUAGCGAAUUUUCAGCGGAUGCCUCCAAA [C11U G40U A42G U49G G59A]	< 1e-05	< 1e-05		
AUAAAAGCGCUAGAACUACAGAAAUGUAGUUGACGAGGAGGAUGUUUAUCGAAUUUUCGGCGGAUGUCUCCAAA [C11U G43U C67U]	< 1e-05	< 1e-05		
AUAAAAGCGCUAGAACUACAGAAAUGUAGUUGACGAGGAGGAGUUUUAUCGAAUUUUCGAGGGAUGCCUCCAAA [C11U G44U G60A C61G]	< 1e-05	< 1e-05	< 1e-05	
AUAAAAGCGCUAGAACUACAGAAAUGUAGUUGACGAGGAGGAGGUCUAUCGUAUUUCCGGCGGAUUCCUCCAAA [C11U U46C A52U U57C G66U]	< 1e-05		< 1e-05	
AUAAAAGCGCCCGAACUACAGAAAUGUAGUUGGCGAGGAGGAGGUUUAUAGACUUUUCGGCGGAUGCCUCCAAA [A12C A33G C50A A53C]	< 1e-05			
AUAAAAGCGCCCGAACUACAGAAAUGUAGUUGACGAGGAGGUGGUUUAUCGAUUUUGCGGCGGAUGCCUCCAAA [A12C A42U A53U U57G]	< 1e-05			
AUAAAAGCGCCCGAACUACAGAAAUGUAGUUGACGAGGAGGAGGUUUAUCGUAUUUUCGGCGGAUGCCUCUAAA [A12C A52U C71U]	4.93e-05 ± 1.4e-05	0.000116 ± 2.4e-05		
AUAAAAGCGCCCGAACUACAGAAAUGUAGUUGAGGAGGAGUAGGUUUAUCGAAUUUUUGGCGGCUGCCUCCAAA [A12C C34G G41U C58U A64C]	< 1e-05	< 1e-05		
AUAAAAGCGCCCGAACUACAGAAAUGUAGUUGACGAGGAGGAGGUUUAUCGAAUUUUCGGCGGAUGAAUCCAAA [A12C C67A C68A]	7.04e-05 ± 1.6e-05	4.41e-05 ± 2.1e-05		
AUAAAAGCGCCCAAACUACAGAAAUGUAGUUGACGAGGAGGAGGUUUAUCGAAUUUUCGGCGGAUGCCUCCAAA [A12C G13A]	6.42e-05 ± 1.2e-05	0.000302 ± 5.1e-05		0.00032 ± 5.7e-05
AUAAAAGCGCCCUAACUACAGAAAUGUAGUUGACGAGGAGGAGGUUUGUCGAAUUUUCGGCGGAUGCCUCCAAA [A12C G13U A48G]	< 1e-05	< 1e-05		
AUAAAAGCGCCCGAACUACAGAAAUGUAGUUCACGAGGAGGAGGUUUAUCGAAUUUCUGGCGGAUGCCUCCAAA [A12C G32C U57C C58U]	< 1e-05	< 1e-05		
